Over roughly 110,000 compounds, “z-score” has its median near -0.1; the highest 2% begin near 2. The list shows a part of the results. Calls of active or inactive are those of the source.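 Rule for the calls: active = z-score in the third read window above 3 or below -3; inactive = the rest.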
Molecular target: Metabotropic glutamate receptor 8 (Rattus norvegicus) (UniProt P70579)
Assay: rat mGluR8 modulators via GIRK flux, primary screen, cell-based, thallium flux, HTS (AID 488969)
Conditions: HEK293 rat mGluR8, GIRK (G protein-gated inwardly rectifying potassium channel) thallium flux, FluoZin2; at 10 µM; stronger effect = higher value; submaximal glutamate (EC20) added with thallium

Sequence of UniProt P70579 (P70579 whole entry, looked up): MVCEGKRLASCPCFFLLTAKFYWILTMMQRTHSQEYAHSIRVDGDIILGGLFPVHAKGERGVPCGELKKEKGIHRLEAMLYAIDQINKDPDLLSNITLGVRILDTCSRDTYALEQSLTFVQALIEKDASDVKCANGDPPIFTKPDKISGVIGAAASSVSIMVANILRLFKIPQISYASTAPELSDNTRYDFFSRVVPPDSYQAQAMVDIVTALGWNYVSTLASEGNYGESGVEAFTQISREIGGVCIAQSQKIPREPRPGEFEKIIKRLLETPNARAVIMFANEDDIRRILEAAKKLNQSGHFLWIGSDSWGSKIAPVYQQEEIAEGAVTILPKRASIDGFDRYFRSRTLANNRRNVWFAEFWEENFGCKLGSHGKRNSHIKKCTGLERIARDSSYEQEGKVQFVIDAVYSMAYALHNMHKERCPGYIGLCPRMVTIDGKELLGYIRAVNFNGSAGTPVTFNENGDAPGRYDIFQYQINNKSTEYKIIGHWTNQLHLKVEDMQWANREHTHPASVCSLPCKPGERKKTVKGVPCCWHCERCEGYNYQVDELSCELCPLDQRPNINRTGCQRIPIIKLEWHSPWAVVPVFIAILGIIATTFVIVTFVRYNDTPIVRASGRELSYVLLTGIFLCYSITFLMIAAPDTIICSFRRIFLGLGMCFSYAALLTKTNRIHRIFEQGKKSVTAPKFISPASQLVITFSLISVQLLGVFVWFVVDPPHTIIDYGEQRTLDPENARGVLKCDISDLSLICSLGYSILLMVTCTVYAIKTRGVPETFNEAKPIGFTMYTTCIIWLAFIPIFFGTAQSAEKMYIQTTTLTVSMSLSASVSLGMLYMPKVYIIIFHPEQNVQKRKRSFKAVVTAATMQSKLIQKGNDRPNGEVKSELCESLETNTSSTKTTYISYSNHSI

Compound | z-score
CCNC(=O)Cn1cnc2c1c(=O)n(C)c(=O)n2C | 0.00387
CC[C@@H](C)[C@H](NS(=O)(=O)c1ccc(C)cc1)C(=O)N1CCC(C(=O)NCC(=O)O)CC1 | -0.145
CC(=O)c1cccc(NC(=O)C2CCCN2S(=O)(=O)c2cccc3nsnc23)c1 (stereo not given) | -0.11
O=C(CN1CCN(Cc2ccc3c(c2)OCO3)CC1)Nc1ccc2c(c1)OCO2 | -1.43
COc1ccc(S(=O)(=O)Cc2ccc(C(=O)NCc3ccccn3)o2)cc1 | -0.168
NS(=O)(=O)c1ccc(NC(=O)N2c3ccccc3Sc3ccccc32)cc1 | 0.371
CCc1nnc(NS(=O)(=O)c2ccc(NC(=S)NC(=O)c3ccccc3)cc2)s1 | active: 5.21
CC(C)(C)NC(=O)COC(=O)CNC(=O)c1cc(Cl)cc([N+](=O)[O-])c1 | 1.35
CCCN1C2=C(C(=O)CCC2)C(c2ccc(O)c(Br)c2)C2=C1CCCC2=O | -1.03
Cc1noc(C)c1CN(C(=S)NC(C)C)c1ccccc1 | -0.102
COc1ccc(CNC(=O)C2CCN(S(=O)(=O)N3CCOCC3)CC2)cc1 | 0.0542
Cc1cc(=O)oc2cc(OCC(=O)OCC(=O)N3CCc4ccccc43)ccc12 | -0.0327
CCOc1ccc(NC(=O)c2ccccc2NS(=O)(=O)c2ccc(F)cc2)c([N+](=O)[O-])c1 | -0.294
CCS(=O)(=O)N1CCN(C(=O)c2cc(OC)cc(OC)c2)CC1 | 0.462
CCc1ccc2c(c1)C1(NN=C(c3ccc(C)cc3)S1)C(=O)N2 (stereo not given) | active: 3.15
O=C(Nc1ccc2c(c1)OCCO2)c1ccc(NC(=O)C2CCCO2)cc1 (stereo not given) | 0.0738
COc1ccc(Nc2nc(N3CCCC3)nc(N3CCCC3)n2)c(OC)c1 | 0.55
CC(=O)Cc1nsc(NC(=O)C2Cc3ccccc3C(=O)O2)n1 (stereo not given) | -0.244
O=C(O)[C@H]1CCC(=O)N1Cc1ccco1 | -0.288
CC(=O)NNS(=O)(=O)c1ccccc1[N+](=O)[O-] | -0.454
O=C(COc1cccc(NC(=O)c2ccco2)c1)c1ccccc1 | 0.382
O=C(NNc1nc2ccccc2s1)c1ccc(F)cc1 | 0.186
O=C(Nc1ccccc1)N1CCN(c2ccc(F)cc2)CC1 | 0.147
COc1ccc(C2C(C(N)=O)=C(C)Nc3nc(-c4ccccc4)nn32)cc1OC (stereo not given) | 0.875
COc1cc(NC(=O)CSc2nc3cc(C)ccc3cc2C)c(C(=O)O)cc1OC | -0.828
O=C1CCCc2c1[nH]c1ccc(CN3CCCCC3)cc21 | 0.129
CCSc1nnc(NC(=O)c2ccc(Br)s2)s1 | -0.152
O=C1c2cccc(OCc3ccc(F)cc3)c2CCN1Cc1ccccc1 | 0.677
CCOc1ccc(C(=O)NCCCn2ccnc2)cc1 | 0.924
COc1ccc(OC)c(C(C)NC(=O)c2ccc(Br)cc2)c1 (stereo not given) | -0.0311

From PubChem BioAssay AID488969 (Vanderbilt High Throughput Screening Facility, 2010)
